Results published in article PMC9911399, “Two distinct binding modes provide the RNA-binding protein RbFox with extraordinary sequence specificity”.
Substitutions are numbered along the chain they refer to; changes in the protein carry UniProt numbers. This is one part of the list.

T1: RBFOX1 RRM (Homo sapiens, UniProt Q9NWB1 109-208)
T1 sequence: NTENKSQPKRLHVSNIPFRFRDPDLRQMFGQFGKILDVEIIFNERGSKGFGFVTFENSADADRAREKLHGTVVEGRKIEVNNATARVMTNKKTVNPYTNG

B1: AGUACGC (DNA:RNA)
RNA: GGGAGACCGGAAUUCAGAUUGUCCAGUACGCUUAAAUCCCGUCGUAGCCACCA
DNA 1: CAATCTGAATTCCGGTCTCCC
DNA 2: TGGTGGCTACGACGGGATT
B2: GAACAAA (DNA:RNA)
RNA: GGGAGACCGGAAUUCAGAUUGUCCGAACAAAUUAAAUCCCGUCGUAGCCACCA
DNA 1: CAATCTGAATTCCGGTCTCCC
DNA 2: TGGTGGCTACGACGGGATT
B3: ACCACUA (DNA:RNA)
RNA: B1 RNA with G26C, U27C, G30U, C31A
DNA 1: CAATCTGAATTCCGGTCTCCC
DNA 2: TGGTGGCTACGACGGGATT
B4: AGCAGCU (DNA:RNA)
RNA: B1 RNA with U27C, C29G, G30C, C31U
DNA 1: CAATCTGAATTCCGGTCTCCC
DNA 2: TGGTGGCTACGACGGGATT
B5: GAUACGC (DNA:RNA)
RNA: B1 RNA with A25G, G26A
DNA 1: CAATCTGAATTCCGGTCTCCC
DNA 2: TGGTGGCTACGACGGGATT
B6: GCGACCC (DNA:RNA)
RNA: B1 RNA with A25G, G26C, U27G, G30C
DNA 1: CAATCTGAATTCCGGTCTCCC
DNA 2: TGGTGGCTACGACGGGATT
B7: GUCCGAC (DNA:RNA)
RNA: B2 RNA with A26U, A27C, A29G, A31C
DNA 1: CAATCTGAATTCCGGTCTCCC
DNA 2: TGGTGGCTACGACGGGATT
B8: UCUCGAC (DNA:RNA)
RNA: B1 RNA with A25U, G26C, A28C, C29G, G30A
DNA 1: CAATCTGAATTCCGGTCTCCC
DNA 2: TGGTGGCTACGACGGGATT
B9: CGGCAAU (DNA:RNA)
RNA: B2 RNA with G25C, A26G, A27G, A31U
DNA 1: CAATCTGAATTCCGGTCTCCC
DNA 2: TGGTGGCTACGACGGGATT
B10: UUUACUU (DNA:RNA)
RNA: B1 RNA with A25U, G26U, G30U, C31U
DNA 1: CAATCTGAATTCCGGTCTCCC
DNA 2: TGGTGGCTACGACGGGATT
B11: CUUGACA (DNA:RNA)
RNA: B2 RNA with G25C, A26U, A27U, C28G, A30C
DNA 1: CAATCTGAATTCCGGTCTCCC
DNA 2: TGGTGGCTACGACGGGATT
B12: UUGUGAC (DNA:RNA)
RNA: B1 RNA with A25U, G26U, U27G, A28U, C29G, G30A
DNA 1: CAATCTGAATTCCGGTCTCCC
DNA 2: TGGTGGCTACGACGGGATT
B13: UACUUUC (DNA:RNA)
RNA: B1 RNA with A25U, G26A, U27C, A28U, C29U, G30U
DNA 1: CAATCTGAATTCCGGTCTCCC
DNA 2: TGGTGGCTACGACGGGATT
B14: GAUGGGU (DNA:RNA)
RNA: B1 RNA with A25G, G26A, A28G, C29G, C31U
DNA 1: CAATCTGAATTCCGGTCTCCC
DNA 2: TGGTGGCTACGACGGGATT
B15: CACCAAU (DNA:RNA)
RNA: B2 RNA with G25C, A27C, A31U
DNA 1: CAATCTGAATTCCGGTCTCCC
DNA 2: TGGTGGCTACGACGGGATT
B16: AUCGCCA (DNA:RNA)
RNA: B1 RNA with G26U, U27C, A28G, G30C, C31A
DNA 1: CAATCTGAATTCCGGTCTCCC
DNA 2: TGGTGGCTACGACGGGATT
B17: AUUGUGC (DNA:RNA)
RNA: B1 RNA with G26U, A28G, C29U
DNA 1: CAATCTGAATTCCGGTCTCCC
DNA 2: TGGTGGCTACGACGGGATT
B18: UCCUAUG (DNA:RNA)
RNA: B2 RNA with G25U, A26C, A27C, C28U, A30U, A31G
DNA 1: CAATCTGAATTCCGGTCTCCC
DNA 2: TGGTGGCTACGACGGGATT
B19: CACUUUU (DNA:RNA)
RNA: B2 RNA with G25C, A27C, C28U, A29U, A30U, A31U
DNA 1: CAATCTGAATTCCGGTCTCCC
DNA 2: TGGTGGCTACGACGGGATT
B20: CUCCUGU (DNA:RNA)
RNA: B1 RNA with A25C, G26U, U27C, A28C, C29U, C31U
DNA 1: CAATCTGAATTCCGGTCTCCC
DNA 2: TGGTGGCTACGACGGGATT

biological target: T1, RBFOX1 RRM; assay: EMSA; HiTS-Eq, 1 nM pool, 10 min; buffer printed only for the single-RNA assays: 10 mM Tris pH 7.5, 150 mM NaCl, 3.4 mM EDTA, 0.001% NP-40, 30 C; details: tags: His6 N-terminal (pET28a); label: 5' 32P
In short: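 A pool of RNA with 7 randomized nucleotides, 5′-radiolabelled and with DNA-annealed flanks, was equilibrated at 1 nM for 10 min in 50 µL with purified RbFox RRM, wild type or mutant, across increasing protein concentrations. Free RNA was separated by 8% native PAGE, excised, reverse-transcribed, barcoded by PCR and sequenced. Relative association constants were obtained from read-count changes of each RNA species versus the control reaction and normalised to the cognate motif.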

Binder	binding signal
B1	0.0101 KA relative to UGCAUGU
B2	0.00175 KA relative to UGCAUGU
B3	0.00145 KA relative to UGCAUGU
B4	0.00711 KA relative to UGCAUGU
B5	0.012 KA relative to UGCAUGU
B6	0.00921 KA relative to UGCAUGU
B7	0.0143 KA relative to UGCAUGU
B8	0.00586 KA relative to UGCAUGU
B9	0.0116 KA relative to UGCAUGU
B10	0.00634 KA relative to UGCAUGU
B11	0.00564 KA relative to UGCAUGU
B12	0.00519 KA relative to UGCAUGU
B13	0.00618 KA relative to UGCAUGU
B14	0.0161 KA relative to UGCAUGU
B15	0.001 KA relative to UGCAUGU
B16	0.00202 KA relative to UGCAUGU
B17	0.0222 KA relative to UGCAUGU
B18	0.0102 KA relative to UGCAUGU
B19	0.000646 KA relative to UGCAUGU
B20	0.0131 KA relative to UGCAUGU
